This passage reports binding results from publication PMC7838300.

The chains behind the UniProt entries cited, without tags or fusion partners. Where a name states a change or a piece, a line headed by the entry shows the natural chain unless it says otherwise. A line that says so, or that is headed by a name, gives the form on record, which may keep a tag or linker.
UniProt P27694: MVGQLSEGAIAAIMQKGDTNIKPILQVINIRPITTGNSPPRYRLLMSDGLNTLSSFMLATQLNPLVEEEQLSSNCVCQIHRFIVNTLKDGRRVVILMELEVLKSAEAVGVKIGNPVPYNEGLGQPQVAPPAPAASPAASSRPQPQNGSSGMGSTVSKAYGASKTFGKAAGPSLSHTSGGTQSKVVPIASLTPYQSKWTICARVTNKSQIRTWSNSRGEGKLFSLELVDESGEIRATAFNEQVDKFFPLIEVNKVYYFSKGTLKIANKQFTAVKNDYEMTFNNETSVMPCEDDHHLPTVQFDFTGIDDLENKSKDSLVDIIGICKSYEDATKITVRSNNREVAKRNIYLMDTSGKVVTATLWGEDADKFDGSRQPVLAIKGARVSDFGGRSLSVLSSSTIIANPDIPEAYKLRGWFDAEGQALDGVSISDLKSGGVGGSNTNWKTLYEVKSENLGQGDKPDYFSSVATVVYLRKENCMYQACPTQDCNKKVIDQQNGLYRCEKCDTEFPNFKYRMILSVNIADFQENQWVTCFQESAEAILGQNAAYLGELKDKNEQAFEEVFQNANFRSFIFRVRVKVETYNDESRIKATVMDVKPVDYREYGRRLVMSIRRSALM
UniProt P54132: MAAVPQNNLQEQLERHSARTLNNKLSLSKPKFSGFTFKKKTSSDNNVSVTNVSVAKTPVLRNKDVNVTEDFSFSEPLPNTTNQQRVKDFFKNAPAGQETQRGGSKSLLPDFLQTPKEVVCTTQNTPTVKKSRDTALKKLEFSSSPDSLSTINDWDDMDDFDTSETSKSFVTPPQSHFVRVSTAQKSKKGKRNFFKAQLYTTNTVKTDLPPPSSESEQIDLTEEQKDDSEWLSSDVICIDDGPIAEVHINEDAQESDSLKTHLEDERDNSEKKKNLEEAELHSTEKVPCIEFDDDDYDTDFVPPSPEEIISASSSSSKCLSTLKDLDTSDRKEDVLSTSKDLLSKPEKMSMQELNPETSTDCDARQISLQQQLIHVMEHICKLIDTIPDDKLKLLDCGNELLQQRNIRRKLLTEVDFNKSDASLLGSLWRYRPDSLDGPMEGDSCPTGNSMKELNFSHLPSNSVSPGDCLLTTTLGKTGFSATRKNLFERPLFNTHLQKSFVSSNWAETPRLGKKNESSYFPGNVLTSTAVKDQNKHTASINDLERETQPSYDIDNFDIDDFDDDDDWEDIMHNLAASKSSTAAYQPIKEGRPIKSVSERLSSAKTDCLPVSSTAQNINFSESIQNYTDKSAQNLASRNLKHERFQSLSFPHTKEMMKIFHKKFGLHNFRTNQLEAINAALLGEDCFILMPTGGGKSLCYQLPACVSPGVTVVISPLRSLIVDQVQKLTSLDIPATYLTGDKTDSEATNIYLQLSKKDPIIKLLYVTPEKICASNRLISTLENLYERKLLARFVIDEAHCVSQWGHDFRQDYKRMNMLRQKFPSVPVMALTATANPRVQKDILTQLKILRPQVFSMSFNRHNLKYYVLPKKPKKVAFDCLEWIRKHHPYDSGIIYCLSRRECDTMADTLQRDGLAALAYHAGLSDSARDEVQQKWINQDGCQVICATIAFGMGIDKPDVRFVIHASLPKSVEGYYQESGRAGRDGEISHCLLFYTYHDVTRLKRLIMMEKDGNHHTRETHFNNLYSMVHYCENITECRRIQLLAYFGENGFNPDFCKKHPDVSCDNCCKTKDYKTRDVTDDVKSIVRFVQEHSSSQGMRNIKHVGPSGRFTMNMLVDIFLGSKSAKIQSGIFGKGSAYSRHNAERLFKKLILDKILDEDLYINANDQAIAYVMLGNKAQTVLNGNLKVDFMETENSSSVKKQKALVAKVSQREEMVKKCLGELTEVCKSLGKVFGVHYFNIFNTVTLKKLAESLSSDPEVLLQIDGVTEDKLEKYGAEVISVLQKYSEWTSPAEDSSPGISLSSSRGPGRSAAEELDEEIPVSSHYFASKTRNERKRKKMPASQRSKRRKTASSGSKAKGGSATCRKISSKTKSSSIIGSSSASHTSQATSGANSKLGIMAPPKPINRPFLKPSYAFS
FLAG-tagged BLM with motif 1 deleted (P54132, form named): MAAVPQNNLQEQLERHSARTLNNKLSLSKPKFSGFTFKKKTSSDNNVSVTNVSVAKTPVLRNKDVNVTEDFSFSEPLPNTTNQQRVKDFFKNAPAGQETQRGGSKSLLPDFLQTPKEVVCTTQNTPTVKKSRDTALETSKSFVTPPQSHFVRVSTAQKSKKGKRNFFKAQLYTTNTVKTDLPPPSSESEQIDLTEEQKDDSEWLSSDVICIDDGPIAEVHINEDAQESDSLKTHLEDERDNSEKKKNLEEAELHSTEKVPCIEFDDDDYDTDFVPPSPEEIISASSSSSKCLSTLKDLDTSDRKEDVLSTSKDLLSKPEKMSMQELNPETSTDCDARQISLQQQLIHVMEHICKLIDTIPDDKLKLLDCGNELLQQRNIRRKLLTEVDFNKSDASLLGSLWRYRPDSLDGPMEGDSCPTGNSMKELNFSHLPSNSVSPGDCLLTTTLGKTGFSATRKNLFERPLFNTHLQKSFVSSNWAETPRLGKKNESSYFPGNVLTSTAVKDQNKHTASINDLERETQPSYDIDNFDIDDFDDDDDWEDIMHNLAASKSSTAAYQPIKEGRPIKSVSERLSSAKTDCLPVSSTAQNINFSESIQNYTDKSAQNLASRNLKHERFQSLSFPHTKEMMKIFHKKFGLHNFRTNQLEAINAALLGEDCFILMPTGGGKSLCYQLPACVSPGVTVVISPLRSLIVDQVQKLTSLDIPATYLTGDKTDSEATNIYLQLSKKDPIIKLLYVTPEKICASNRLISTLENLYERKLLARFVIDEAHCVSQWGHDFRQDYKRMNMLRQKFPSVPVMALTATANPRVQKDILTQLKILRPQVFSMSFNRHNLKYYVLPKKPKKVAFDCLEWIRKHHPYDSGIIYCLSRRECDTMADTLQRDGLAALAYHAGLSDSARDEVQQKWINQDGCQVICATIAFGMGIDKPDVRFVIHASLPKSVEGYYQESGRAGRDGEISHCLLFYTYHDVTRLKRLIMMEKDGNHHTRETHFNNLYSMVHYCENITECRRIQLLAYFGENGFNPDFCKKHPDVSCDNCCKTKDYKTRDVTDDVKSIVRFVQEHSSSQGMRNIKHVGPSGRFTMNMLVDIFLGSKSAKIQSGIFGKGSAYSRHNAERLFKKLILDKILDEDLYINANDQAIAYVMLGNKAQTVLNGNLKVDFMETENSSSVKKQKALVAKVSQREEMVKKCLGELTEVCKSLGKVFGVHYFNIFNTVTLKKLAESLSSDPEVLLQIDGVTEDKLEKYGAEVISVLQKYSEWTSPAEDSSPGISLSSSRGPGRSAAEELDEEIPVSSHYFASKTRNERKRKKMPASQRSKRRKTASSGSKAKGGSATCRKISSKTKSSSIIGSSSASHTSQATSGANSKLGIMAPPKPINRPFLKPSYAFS
FLAG-tagged BLM with motif 3 deleted (P54132, form named): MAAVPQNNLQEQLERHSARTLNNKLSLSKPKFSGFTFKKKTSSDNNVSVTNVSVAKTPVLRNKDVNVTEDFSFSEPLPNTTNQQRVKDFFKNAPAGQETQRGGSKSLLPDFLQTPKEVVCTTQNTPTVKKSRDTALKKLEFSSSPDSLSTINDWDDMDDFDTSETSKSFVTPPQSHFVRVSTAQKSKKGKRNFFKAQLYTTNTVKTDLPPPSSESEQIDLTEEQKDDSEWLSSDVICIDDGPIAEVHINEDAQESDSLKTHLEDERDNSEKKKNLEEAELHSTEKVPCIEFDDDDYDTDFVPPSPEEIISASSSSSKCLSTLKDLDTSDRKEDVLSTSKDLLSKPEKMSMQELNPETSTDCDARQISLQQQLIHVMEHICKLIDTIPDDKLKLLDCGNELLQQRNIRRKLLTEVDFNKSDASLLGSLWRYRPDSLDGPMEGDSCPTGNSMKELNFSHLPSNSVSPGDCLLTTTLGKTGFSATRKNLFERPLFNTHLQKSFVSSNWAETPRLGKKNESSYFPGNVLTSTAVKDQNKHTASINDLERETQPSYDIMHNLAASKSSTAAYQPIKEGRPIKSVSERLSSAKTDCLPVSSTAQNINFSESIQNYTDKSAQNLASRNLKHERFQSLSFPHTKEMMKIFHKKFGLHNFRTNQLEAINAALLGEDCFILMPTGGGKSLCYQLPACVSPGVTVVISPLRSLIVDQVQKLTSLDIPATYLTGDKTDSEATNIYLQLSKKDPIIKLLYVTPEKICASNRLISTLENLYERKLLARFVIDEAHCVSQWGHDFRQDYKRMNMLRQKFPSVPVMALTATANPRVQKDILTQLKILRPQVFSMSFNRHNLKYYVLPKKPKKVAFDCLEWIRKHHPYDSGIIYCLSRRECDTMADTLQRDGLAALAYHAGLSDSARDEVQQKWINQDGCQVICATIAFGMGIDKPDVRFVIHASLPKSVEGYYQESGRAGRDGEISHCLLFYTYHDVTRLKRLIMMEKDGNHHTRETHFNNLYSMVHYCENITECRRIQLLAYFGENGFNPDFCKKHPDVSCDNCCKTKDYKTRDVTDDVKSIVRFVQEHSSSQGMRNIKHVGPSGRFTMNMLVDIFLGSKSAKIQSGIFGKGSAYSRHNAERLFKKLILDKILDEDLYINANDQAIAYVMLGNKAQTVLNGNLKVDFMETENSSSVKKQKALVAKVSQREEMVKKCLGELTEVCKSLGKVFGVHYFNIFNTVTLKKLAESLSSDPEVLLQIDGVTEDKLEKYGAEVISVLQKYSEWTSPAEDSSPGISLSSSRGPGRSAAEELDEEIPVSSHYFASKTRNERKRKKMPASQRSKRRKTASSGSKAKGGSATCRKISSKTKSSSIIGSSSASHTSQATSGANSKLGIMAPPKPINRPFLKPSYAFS
FLAG-tagged BLM with the TOP3A/RMI1-binding (TR) domain deleted (P54132, form named): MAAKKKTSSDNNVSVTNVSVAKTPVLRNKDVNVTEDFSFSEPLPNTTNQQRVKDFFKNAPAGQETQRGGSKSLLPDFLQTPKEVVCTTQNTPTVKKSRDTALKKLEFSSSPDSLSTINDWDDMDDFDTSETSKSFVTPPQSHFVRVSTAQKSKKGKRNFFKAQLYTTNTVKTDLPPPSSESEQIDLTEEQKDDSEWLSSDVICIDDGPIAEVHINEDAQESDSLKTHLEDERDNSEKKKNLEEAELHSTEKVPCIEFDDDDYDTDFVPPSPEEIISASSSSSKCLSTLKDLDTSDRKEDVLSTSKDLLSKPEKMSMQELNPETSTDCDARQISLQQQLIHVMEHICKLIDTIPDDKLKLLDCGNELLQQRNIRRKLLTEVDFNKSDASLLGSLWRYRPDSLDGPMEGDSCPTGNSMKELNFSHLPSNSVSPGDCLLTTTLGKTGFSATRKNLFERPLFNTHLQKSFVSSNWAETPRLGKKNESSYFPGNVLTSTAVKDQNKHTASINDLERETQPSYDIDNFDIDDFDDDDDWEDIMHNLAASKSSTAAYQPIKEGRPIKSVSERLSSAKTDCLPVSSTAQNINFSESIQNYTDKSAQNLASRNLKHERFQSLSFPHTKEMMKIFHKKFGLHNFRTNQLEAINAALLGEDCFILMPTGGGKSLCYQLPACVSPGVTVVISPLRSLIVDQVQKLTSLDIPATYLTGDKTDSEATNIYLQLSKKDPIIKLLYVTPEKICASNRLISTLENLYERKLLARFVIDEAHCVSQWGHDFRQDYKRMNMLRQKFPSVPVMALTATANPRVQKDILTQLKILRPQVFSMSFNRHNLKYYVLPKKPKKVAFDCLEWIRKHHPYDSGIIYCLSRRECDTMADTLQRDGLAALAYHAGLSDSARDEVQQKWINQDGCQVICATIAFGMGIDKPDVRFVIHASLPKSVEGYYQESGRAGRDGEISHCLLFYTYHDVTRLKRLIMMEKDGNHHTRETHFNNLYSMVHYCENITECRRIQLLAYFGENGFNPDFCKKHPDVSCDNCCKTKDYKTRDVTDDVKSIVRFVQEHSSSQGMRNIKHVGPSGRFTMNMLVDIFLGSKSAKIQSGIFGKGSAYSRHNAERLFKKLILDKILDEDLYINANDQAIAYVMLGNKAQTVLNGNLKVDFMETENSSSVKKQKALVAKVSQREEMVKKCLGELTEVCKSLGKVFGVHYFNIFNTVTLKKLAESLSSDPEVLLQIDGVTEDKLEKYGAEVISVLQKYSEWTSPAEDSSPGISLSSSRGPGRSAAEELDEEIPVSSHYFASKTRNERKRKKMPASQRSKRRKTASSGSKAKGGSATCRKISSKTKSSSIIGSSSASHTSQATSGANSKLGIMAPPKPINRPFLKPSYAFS
UniProt P15927: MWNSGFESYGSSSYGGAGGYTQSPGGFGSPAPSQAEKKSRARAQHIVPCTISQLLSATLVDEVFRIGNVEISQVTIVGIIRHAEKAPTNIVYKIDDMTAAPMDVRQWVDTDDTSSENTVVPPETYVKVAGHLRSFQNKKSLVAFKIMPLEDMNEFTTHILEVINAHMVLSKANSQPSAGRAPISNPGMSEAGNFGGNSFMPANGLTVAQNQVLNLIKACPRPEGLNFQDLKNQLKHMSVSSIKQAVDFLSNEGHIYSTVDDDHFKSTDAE

One assay has as its target GFP-tagged WT RPA1 (UniProt P27694). As to the kind of experiment: co-IP; GFP-Trap magnetic agarose beads, lysates of transfected 293FT cells, Benzonase-treated, 200 mM NaCl, 2 mM EDTA, 2 h at 4 °C, western blotting.
In assay [1] the target is GFP-tagged R41E/Y42F RPA1 (UniProt P27694). The assay is described as above.
The target in assay [2] is T1, RMI1 motif 5 peptide, N-terminally biotinylated (human).
T1 sequence (peptide, biotin on the N-terminus): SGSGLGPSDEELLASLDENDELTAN
The assay is described as follows: pull-down; biotinylated peptides on streptavidin beads with in vitro translated heterotrimeric RPA (WT or R41E/Y42F RPA1) in rabbit reticulocyte lysate, Benzonase-treated, 200 mM NaCl, 2 mM EDTA; only the target purified.

The target of assay [3] is T2, BLM motif 3 peptide, N-terminally biotinylated (human).
T2 sequence (peptide, biotin on the N-terminus): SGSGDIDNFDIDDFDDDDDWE
The assay is described as above.

The target in assay [4] is BLM motif 1 peptide, N-terminally biotinylated (human). Described as above.
Assay [5] addresses T1, RMI1 motif 5 peptide, N-terminally biotinylated (human). As to the kind of experiment: pull-down; biotinylated peptides on streptavidin Dynabeads M-280 incubated with clarified HeLa nuclear extract, 4 °C, 2 h; eluates analysed by western blotting; only the target purified.
Assay [6] addresses T2, BLM motif 3 peptide, N-terminally biotinylated (human). The description is as above.
Assay [7] deals with T3, BLM motif 2 peptide, native (not phosphorylated), N-terminally biotinylated (human).
T3 sequence (peptide, biotin on the N-terminus): SGSGDYDTDFVPPSPEEII
Described as above.

The target of assay [8] is BLM motif 1 peptide, N-terminally biotinylated (human). The assay is described as above.
The target of assay [9] is T4, RMI1 motif 6 peptide, N-terminally biotinylated (human).
T4 sequence (peptide, biotin on the N-terminus): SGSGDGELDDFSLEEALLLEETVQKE
Described as above.

Results are given in words; binding and its absence hold for the method and conditions named. In cells and extracts the contact can be indirect. Some results given as binding are weak or reduced against the parent protein; the word gives no strength.

Turning to “BLM, endogenous in 293FT cells (from UniProt P54132 1-1417)”, the binding entry is “binds” with GFP-tagged WT RPA1 and “no binding” in assay [1]. For the substance “FLAG-tagged BLM with motif 1 deleted (from UniProt P54132 1-1417)”, the binding entry in the assay with GFP-tagged WT RPA1 is “binds”. With “FLAG-tagged BLM with motif 3 deleted (from UniProt P54132 1-1417)”, in the assay with GFP-tagged WT RPA1, the binding result is “binds”.

For the substance “FLAG-tagged BLM with the TOP3A/RMI1-binding (TR) domain deleted (from UniProt P54132 1-1417)”, the binding entry with GFP-tagged WT RPA1 was “binds”. Still for that read-out and setting: next, “FLAG-tagged BLM with the TR domain and motifs 1 and 3 deleted (from UniProt P54132 1-1417)”: “binds weakly”. As for “FLAG-tagged BLM, wild type (from UniProt P54132 1-1417)”, the binding entry with GFP-tagged WT RPA1 is on record as “binds”. As for “Full-length BLM with motif 2 deleted (from UniProt P54132 1-1417)”, the binding result with GFP-tagged WT RPA1 is reported as “binds”.

For “RPA1 R41E/Y42F, in vitro translated as part of the heterotrimeric RPA1-RPA2-RPA3 complex (from UniProt P27694 1-616)”, the binding entry in assay [2], in [3] and in [4] was “no binding” in each case. Turning to “RPA1 WT, in vitro translated as part of the heterotrimeric RPA1-RPA2-RPA3 complex (from UniProt P27694 1-616)”, the binding result in [2], in assay [3] and in [4] was “binds” each time.

Regarding “RPA1 subunit of RPA from HeLa nuclear extracts (from UniProt P27694 1-616)”, the binding result in [5] is listed as “binds”; in assay [6] it was “binds”; in assay [7], “no binding”; in assay [8], “binds”; in assay [9], “no binding”. Turning to “RPA2 subunit of RPA from HeLa nuclear extracts (from UniProt P15927 1-270)”, the binding result in assay [7] and in [9] was “no binding” in each case.
